Reference: US20230398178A1, “METHODS AND COMPOSITIONS FOR TREATING OR PREVENTING A VAGINAL INFECTION OF GARDNERELLA VAGINALIS” (Massachusetts Institute of Technology, priority 2022, published 2023)
Like-named read-outs stand apart in the source and are kept apart here.

Tested on: End1 endocervical cells challenged with G. vaginalis 49145 or 14018
Text: FIG. 3A-E: Mucin and D-fucose can prevent G. vaginalis killing of End1 cervical cells in vitro, potentially by reducing the expression of vaginolysin. […] To assess the protective ability of MUC5B, it can be added to apical surface of the cells. The cells can then be challenged with G. vaginalis, and the percentage of endocervical cell death can be recorded. […] (FIG. 3D) A key mechanism by which G. vaginalis kills endocervical cells is by secreting the cholesterol-dependent cytolysin vaginolysin (vly). […] We measured vaginolysin expression by RT-qPCR.
Given that mucin and D-fucose are able to suppress biofilm formation by G. vaginalis 49145 and 14018, we next wondered whether this effect translated into reduced virulence against epithelial cells. To test this, we used an endocervical cell line model (End1), introduced these strains as a pathogen challenge, and then measured the viability of the endocervical cells after 24 hours (FIG. 3A). In the control, challenging End1 cells with either strain of Gardnerella results in almost 90% cell death.

Row | Compound | effect on endocervical cell death / killing, in words | effect on endocervical cell death / killing, in words (End1 cells challenged with G. vaginalis 49145 or 14018, viability after 24 hours, listed as mucin)
1 | CC(=O)N[C@H]1[C@H]([C@H](O)[C@H](O)CO)OC(O)(C(=O)O)C[C@@H]1O (stereo partly drawn) [NeuNAc, N-acetyl D-neuraminic acid, reference compound] | did not add to or protect against cell killing | 
2 | MUC5B: mucin glycoprotein, predominant in cervicovaginal fluid, purified from pooled human saliva and reconstituted into gels |  | significant reduction in cell death
